# According to publication PMC6919601, “Identification of Plasmodium dipeptidyl aminopeptidase allosteric inhibitors by high throughput screening” (PLoS ONE, 2019):
# About 230 (0.21%) of roughly 110,000 compounds showed an effect of 50% or more. Some of the results follow.
# Target: DPAP1 (Plasmodium falciparum, UniProt Q8IIJ9)
# Assay: primary screen, percent inhibition; read by cleavage of a fluorogenic dipeptide substrate; higher = more effect of the substance
# Design: species or system P. falciparum D10 trophozoite lysates; single well
# 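Also: 30 min substrate incubation versus DMSO and 10 µM JCP410 controls.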
# Chain of DPAP1 (Q8IIJ9 whole entry, looked up): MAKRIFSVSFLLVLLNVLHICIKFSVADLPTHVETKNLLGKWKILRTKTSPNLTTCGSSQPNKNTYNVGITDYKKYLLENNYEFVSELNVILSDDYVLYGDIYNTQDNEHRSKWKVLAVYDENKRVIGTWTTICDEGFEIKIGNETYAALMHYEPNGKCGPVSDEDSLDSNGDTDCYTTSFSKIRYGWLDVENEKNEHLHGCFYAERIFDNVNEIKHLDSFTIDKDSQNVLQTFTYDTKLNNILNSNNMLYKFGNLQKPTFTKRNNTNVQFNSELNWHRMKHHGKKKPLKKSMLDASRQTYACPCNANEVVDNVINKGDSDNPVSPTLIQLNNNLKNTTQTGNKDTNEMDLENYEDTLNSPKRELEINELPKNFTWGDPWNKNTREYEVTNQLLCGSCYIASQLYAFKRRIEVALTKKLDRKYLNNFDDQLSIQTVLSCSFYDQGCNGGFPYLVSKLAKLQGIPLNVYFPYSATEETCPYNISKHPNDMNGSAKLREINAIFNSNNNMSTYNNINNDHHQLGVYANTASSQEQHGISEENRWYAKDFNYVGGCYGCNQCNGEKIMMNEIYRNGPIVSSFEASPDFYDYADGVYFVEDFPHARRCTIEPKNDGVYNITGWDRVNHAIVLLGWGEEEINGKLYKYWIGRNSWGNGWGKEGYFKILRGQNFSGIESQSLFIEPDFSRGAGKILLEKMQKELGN
row,Structure (SMILES),% Inhibition @ 10 uM
1,CS(=O)(=O)CC1CC1(Cl)Cl (stereo not shown),1.63%
2,Cc1ccccc1S(=O)(=O)Cc1ccc(C(=O)NC2CCCc3ccccc32)o1 (stereo not shown),3.47%
3,COc1ccc(C2C(C#N)=C(N)OC3=C2C(=O)CCC3)cc1CSc1ccccn1 (stereo not shown),-4.4%
4,Cc1ccc(-n2nc(C)c(/C=N/c3ccc(S(N)(=O)=O)cc3)c2O)c(C)c1,-3.26%
5,COc1ccc(/C=C(\NC(=O)c2ccccc2)C(=O)NCc2ccco2)cc1,-0.615%
6,CCN1CCCC1CNC(=O)c1sc2nc(C)cc(C)c2c1-n1cccc1 (stereo not shown),3.87%
7,CC(C)N(Cc1nc(-c2ccc(Cl)cc2)no1)C(=O)C12CC3CC(CC(C3)C1)C2,4.95%
8,COc1ccc(-n2nnnc2C2CCNCC2)cc1,-3.49%
9,O=C(c1cccs1)N1CCCc2ccccc21,-4.21%
10,CN(C)CCCN(C(=O)COc1ccccc1)c1nc2ccc(F)cc2s1,5.62%
11,CCCCCCN1C(=O)C(O)=C(C(C)=O)C1c1ccc(OC)c(OC)c1 (stereo not shown),-0.467%
12,CCOC(=O)c1c(NCc2ccc(N(C)C)cc2)sc2c1CCCC2,5.35%
13,Cn1c(=O)n(CC(=O)Nc2ccc(OC(F)(F)Cl)cc2)c2ccccc21,-1.52%
14,CC(C)(C)c1ccc(-c2nnc(-c3sc4ccccc4c3Cl)o2)cc1,0.219%
15,CC1CCN(c2nn3c(=O)c(C(=O)N4CCN(Cc5ccc6c(c5)OCO6)CC4)cnc3s2)CC1,-4.75%
16,NC(=O)C1(N2CCCCC2)CCN(S(=O)(=O)c2ccc(OC(F)(F)F)cc2)CC1,1%
17,CC(C)(C)C(/C=C\c1ccc(Cl)cc1Cl)n1nnnc1C1(Nc2ccc(Cl)cc2)CCCC1 (stereo not shown),-3.98%
18,CCOC(=O)c1[nH]c(C)c(C(=O)NCc2ccccn2)c1C,-5.27%
19,CCOc1ccc(CC(=O)Nc2ccc(CC#N)cc2)cc1OCC,2.01%
20,COc1cccc(N(CC(=O)NCC2CCCO2)S(=O)(=O)c2ccc(C)cc2)c1 (stereo not shown),2.42%
21,Cc1nn(C(=O)CCC(=O)NCCc2ccccc2)c2ccccc12,-4.71%
22,CC(C)c1ccc(S(=O)(=O)n2nnc3ccccc32)cc1,0.146%
23,Cc1cccc(C(=O)Nc2ccc(OC(F)(F)F)cc2)c1,1.57%
24,O=C(CCN1C(=O)c2ccccc2S1(=O)=O)Nc1cccc(C(F)(F)F)c1,4.96%
25,COc1ccc2ccccc2c1CNCCNC(=O)c1nonc1N,-5.33%

row,Structure (SMILES),% Inhibition @ 10 uM
1,CCn1cc(CNC(=O)Nc2ccc(C)cc2)c(C)n1,0.605%
2,CN(C)CCN(C)C1CCC(c2ccccc2)CC1 (stereo not shown),-1.5%
3,COCc1[nH]nc2c1C(c1ccc(Cl)cc1)C(C#N)=C(N)O2 (stereo not shown),2.01%
4,Cc1ccccc1NC1SC(=O)N(Cc2cccc(C(=O)O)c2)C1=O (stereo not shown),-10.2%
5,COc1ccc(N(CC(=O)Nc2ccc3ccccc3c2)S(C)(=O)=O)cc1,1.02%
6,O=C(CCCCC(=O)Nc1ccc(Cl)cc1)Nc1ccc(Cl)cc1,0.536%
7,C=CCc1ccccc1OCc1nc2ccccc2[nH]1,-2.92%
8,Cc1ccccc1CN1CCN(c2ncnc3c2cnn3Cc2ccc(Cl)cc2)CC1,4.77%
9,CC(NC(=O)Cn1ncc2c3ccccc3n(C)c2c1=O)c1ccccc1 (stereo not shown),-3.67%
10,Cc1sc(NC(=O)c2ccc(F)cc2)c(CN2CCN(C(=O)c3ccco3)CC2)c1C,-4.72%
11,N#CC1=C(N)OC2=C(C(=O)CC(c3ccccc3)C2)C1c1ccc(-c2ccccc2)cc1 (stereo not shown),0.317%
12,COc1cccc(CN(C(=O)c2cc3ccccc3oc2=O)C2CCS(=O)(=O)C2)c1 (stereo not shown),0.366%
13,C=CCNC(=O)C(C)Sc1ccc(C)cc1 (stereo not shown),-0.996%
14,O=C(O)CCCN1C(=O)S/C(=C\C=C\c2ccccc2)C1=O,-1.92%
15,CC(C)COc1ccc(C(=O)Nc2nnc(S(=O)(=O)N3CCC(C)CC3)s2)cc1,-3.51%
16,COC(=O)C1=C(O)/C(=C/c2ccc(O)cc2)N=C1C,-1.6%
17,CCc1ccc(-c2csc(-c3cccnc3)n2)cc1,-0.185%
18,COc1cccc(-c2noc(-c3cccnc3)n2)c1,-8.21%
19,O=C(c1ccccc1F)N1CCN(S(=O)(=O)c2ccc3c(c2)OCCO3)CC1,0.238%
20,Cc1cc(C)cc(NC(=O)CN(CCc2ccccc2)S(C)(=O)=O)c1,1.62%
21,Cc1ccc2oc(=O)c3cnn(CC(=O)N4CCN(Cc5ccc6c(c5)OCO6)CC4)c3c2c1,1.62%
22,COc1cc(C2=NOC(C(=O)NC3CCCC3)C2)cc(OC)c1OC (stereo not shown),-2.16%
23,Cc1cccc(C)c1NC(=O)CSCC(=O)Nc1ccc2ccccc2c1,-3.26%
24,Cc1ccc(-c2[nH]nc3nc(-c4cc(Cl)ccc4O)cc(C(=O)O)c23)cc1,6.13%
